According to the BET-seq Pho4 binding data (Le et al. 2018):
The list shows a part of the results. The energies were worked out here from pooled read counts, against the library average; single values are noisy.

Target: T1, Pho4 (S. cerevisiae) (UniProt P07270)
T1 sequence: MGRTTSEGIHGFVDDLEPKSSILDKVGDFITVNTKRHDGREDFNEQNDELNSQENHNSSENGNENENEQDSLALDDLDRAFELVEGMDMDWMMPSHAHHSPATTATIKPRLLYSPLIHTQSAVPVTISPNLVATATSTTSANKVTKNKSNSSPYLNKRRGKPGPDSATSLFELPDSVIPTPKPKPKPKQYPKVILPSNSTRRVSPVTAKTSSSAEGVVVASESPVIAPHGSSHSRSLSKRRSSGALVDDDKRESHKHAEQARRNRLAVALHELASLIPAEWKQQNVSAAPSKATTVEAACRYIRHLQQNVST
Assay: relative binding free energy (BET-seq); higher = weaker binding
Conditions: reference: library average

Sequence | relative binding free energy
GGATGCACGTGAATTG | 0.26 kcal/mol
AAGGTCACGTGCGCGG | -0.02 kcal/mol
TGGTGCACGTGAACGA | 0.34 kcal/mol
TGTCCCACGTGGTTTG | -0.17 kcal/mol
GGTGTCACGTGCGTTA | 0.03 kcal/mol
GTGTTCACGTGCATAT | 0.32 kcal/mol
GTAGTCACGTGTAAAG | 0.2 kcal/mol
TATAGCACGTGTTAAG | -0.16 kcal/mol
TGTGGCACGTGTAGTA | -0.02 kcal/mol
GTCGGCACGTGTTTGA | 0.18 kcal/mol
GTTCACACGTGGTCTG | 0.26 kcal/mol
GATGTCACGTGGCTTT | 0.06 kcal/mol
GCGTACACGTGGGTGG | -0.03 kcal/mol
CGAGGCACGTGGGCTT | -0.2 kcal/mol
AAATTCACGTGGAGGT | 0.19 kcal/mol
TGATGCACGTGGAAAT | 0.12 kcal/mol
AGTGTCACGTGGCTGA | 0.01 kcal/mol
GGGGTCACGTGCTATT | 0.14 kcal/mol
GGCATCACGTGGTTAG | 0.13 kcal/mol
GAAAACACGTGTGGTT | 0.18 kcal/mol
AATATCACGTGTGGAT | 0.37 kcal/mol
AGCATCACGTGTGATG | 0.23 kcal/mol
ATTGTCACGTGAATTG | 0.19 kcal/mol

Sequence | relative binding free energy
TTAATCACGTGGTGCC | 0.15 kcal/mol
CCGGTCACGTGGGGGA | 0.04 kcal/mol
TGTGTCACGTGAACGT | 0.18 kcal/mol
CGGGGCACGTGAGGAA | 0.14 kcal/mol
TCTTTCACGTGGGATG | 0.28 kcal/mol
TAGGCCACGTGAGGGG | 0.01 kcal/mol
AAAGTCACGTGAAGTA | 0.27 kcal/mol
AATGTCACGTGATATT | 0.28 kcal/mol
TTTCGCACGTGAAATG | 0.27 kcal/mol
GGAACCACGTGGGGTA | -0.18 kcal/mol
TCGATCACGTGGGTGA | 0.01 kcal/mol
AGTCCCACGTGGTGTG | -0.13 kcal/mol
TGTAGCACGTGGCGAG | -0.12 kcal/mol
TTCTGCACGTGCTTGG | -0.07 kcal/mol
GTTGCCACGTGGGTTT | -0.12 kcal/mol
GTTGACACGTGATAGT | 0.24 kcal/mol
AAGAGCACGTGGGCTG | -0.21 kcal/mol
TGGATCACGTGGGTTA | 0.05 kcal/mol
ATTGGCACGTGATGGA | -0.07 kcal/mol
CGTGGCACGTGTAATG | 0.03 kcal/mol
TGTGACACGTGGAGGC | 0.02 kcal/mol
CCTGGCACGTGATTTT | 0.16 kcal/mol
TTTGCCACGTGCGTTA | -0.05 kcal/mol

Sequence | relative binding free energy
TTGTACACGTGATGGC | 0.44 kcal/mol
TAGACCACGTGGTTGG | -0.12 kcal/mol
GGTTTCACGTGTGCTG | 0.23 kcal/mol
ATGGACACGTGCGAGG | -0.06 kcal/mol
TGACGCACGTGCTGGT | -0.21 kcal/mol
CAAGTCACGTGGTGTT | 0.01 kcal/mol
AAGTCCACGTGTGTGA | 0.16 kcal/mol
ATTAACACGTGAGCGT | 0.14 kcal/mol
AAAGTCACGTGGTGGA | 0.02 kcal/mol
GAATACACGTGTGTTG | 0.04 kcal/mol
GTGTGCACGTGGTCTC | -0.02 kcal/mol
TGGTTCACGTGCTTTG | 0.22 kcal/mol
AAGAGCACGTGAATGG | 0.12 kcal/mol
AGTGACACGTGTGATA | 0.13 kcal/mol
TTGCGCACGTGTTTAA | -0.01 kcal/mol
AGGATCACGTGTTTCG | 0.17 kcal/mol
GTTCTCACGTGTTCGT | 0.19 kcal/mol
ATAGACACGTGGATGG | -0.04 kcal/mol
ATCGTCACGTGGAGCG | 0.17 kcal/mol
GGAGGCACGTGTATAG | 0.01 kcal/mol
GGGTGCACGTGATGGC | 0.24 kcal/mol
TGTCTCACGTGTTTTA | 0.15 kcal/mol
AAGTACACGTGTTTCT | 0.21 kcal/mol

Sequence | relative binding free energy
TATGCCACGTGAGGTG | 0.14 kcal/mol
AGGAACACGTGGTTTG | 0.06 kcal/mol
GATATCACGTGGTTTT | 0.22 kcal/mol
AAATTCACGTGGTCGT | 0.18 kcal/mol
GAAGGCACGTGGCTGG | -0.07 kcal/mol
CATTTCACGTGTGCGG | 0.39 kcal/mol
GGAGTCACGTGGGGTA | 0.1 kcal/mol
TGGTACACGTGACGGT | 0.23 kcal/mol
GTTGTCACGTGAGGGT | 0.4 kcal/mol
ATTGACACGTGAAAGT | 0.3 kcal/mol
TTTTGCACGTGTTTCT | 0 kcal/mol
GTGGCCACGTGGTTCT | -0.04 kcal/mol
GGTGGCACGTGGAGTT | 0.08 kcal/mol
GGATTCACGTGGGTTC | 0.24 kcal/mol
AGTCTCACGTGTGGTT | 0.12 kcal/mol
GCATTCACGTGTTAGT | 0.21 kcal/mol
TACTGCACGTGGGGAG | -0.23 kcal/mol
GATGTCACGTGTCTAG | 0.23 kcal/mol
CCTGGCACGTGGCGGG | -0.27 kcal/mol
GCTGGCACGTGGCGTA | -0.2 kcal/mol
CAGGGCACGTGGATAA | 0.06 kcal/mol
TGGTGCACGTGTGACT | 0 kcal/mol
GAGGTCACGTGGAGCT | 0.11 kcal/mol

Sequence | relative binding free energy
ATGGTCACGTGGATCG | 0.18 kcal/mol
TTTGGCACGTGCTTTT | 0.02 kcal/mol
AAGTGCACGTGAAATG | 0.14 kcal/mol
AAAGTCACGTGAGAGG | 0.12 kcal/mol
AACGCCACGTGGGGGG | -0.16 kcal/mol
TTGATCACGTGTATCG | 0.24 kcal/mol
GAAGTCACGTGCTTGG | 0.07 kcal/mol
TTGATCACGTGTGCTG | 0.26 kcal/mol
TTTAACACGTGCTTAG | -0.11 kcal/mol
GCGGGCACGTGGGAGC | -0.22 kcal/mol
TTCGCCACGTGGGAGG | -0.2 kcal/mol
GATTTCACGTGTAGAG | 0.13 kcal/mol
ATTAGCACGTGGTCTA | -0.18 kcal/mol
ATCGTCACGTGGGAAT | 0.06 kcal/mol
CAGGGCACGTGGCGGC | -0.21 kcal/mol
TGGATCACGTGTCAGT | 0.13 kcal/mol
GTTGGCACGTGTAATC | 0.24 kcal/mol
GGTAACACGTGTCAGT | 0.18 kcal/mol
GTGAGCACGTGTTGGT | 0 kcal/mol
CGGGACACGTGCGGGC | 0.06 kcal/mol
TTTACCACGTGTATTT | -0.04 kcal/mol
TTAAACACGTGCGTGG | -0.11 kcal/mol
TTCTACACGTGACGGT | 0.34 kcal/mol
